This is an account of results in PubChem BioAssay (NCI).

Each structure is given as a SMILES string.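 Grown in 96-well plates, cells were treated for 48 hours with each compound at five concentrations. Insufficient inhibition: endpoint recorded as highest concentration tested. Here, GI50 denotes the concentration required for 50% inhibition of growth. The concentration for full growth arrest is given as TGI.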 Where only a bound is given, the exact number is not on record here.

This test concerns NCI-H322M lung. As to the kind of experiment: NCI-60 cell line screen, 48 h.
As to `N.N.N.N.N.N#N.[Cl-].[Os+7]`, the GI50 is 6.29 µM and the TGI is > 100 µM. On the same counts, the results for `C[C@H](C(=O)N[C@@H](Cc1ccc(-c2ccccc2)cc1)C(=O)NC1CC(C)(C)N(C)C(C)(C)C1)c1ccc(-c2ccccc2)c(F)c1` are 1.48 µM and 2.99 µM.

In the case of `CC(C)(C)OC(=O)NNC(=O)C1Cc2ccccc2OC1=O` (centres undefined), the TGI is > 100 µM. On the same count and under the same terms, the result for `O=C(CSc1nnc(Cc2ccccc2)o1)Nc1ccccc1Cl` reads > 100 µM; that for `Nc1c(S(=O)(=O)O)cc(Nc2cccc(S(N)(=O)=O)c2)c2c1C(=O)c1ccccc1C2=O`, > 100 µM. Still for that read-out and setting: the result for `COc1cc(/C=C/C=C2\CCC/C(=C\C=C\c3ccc(O)c(OC)c3)C2=O)ccc1O` reads 37.3 µM; that for `C=C(C)C1CC2=C(O1)C(=O)c1ccccc1C2=O` (centres undefined), 42.7 µM. Turning to `COc1cc(-c2nc3ccccc3[nH]2)ccc1OCC(=O)N=Nc1c(O)[nH]c2ccc(Cl)cc12`, the GI50 was 1.48 µM and the TGI turned out to be 3.07 µM.

In turn, `OC(Cc1ccccc1)(Cc1ccccc1)c1ccccc1` registered a TGI of 53.1 µM. Same read-out and setting: the result for `O=Nc1ccc(O)c2ncccc12` reads 36.8 µM; that for `C/C=C/C(=O)[C@@H](O)C(C)C`, > 100 µM. As to `CN(C)CCn1c(=O)oc2cc(C(=O)CN3CCOCC3)ccc21`, the TGI was > 100 µM. Consider `CC(N)(Cc1c[nH]c2ccccc12)C(=O)O` (centres undefined), for which the GI50 was > 2500 µM and the TGI is > 2500 µM. In the case of `COc1cc(/C=C2\N=C(c3ccccc3)N(c3nc4cc(C)c(C)cc4s3)C2=O)cc(OC)c1OC`, the TGI is > 100 µM. As to `Cc1ccc(/C=N/NS(=O)(=O)c2ccccc2)cc1`, the TGI was > 100 µM. Same read-out and setting: the result for `COc1ccc(OC)c(/C=C/C(=O)C(C)(C)C)c1` reads 50.6 µM; that for `OC12CC3c4ccccc4NC3C3Oc4cccc5c4C31CCN(CC1CC1)C2C5` (centres undefined), 32.1 µM.

Consider `O=C(CCc1ccco1)NC1CCN(CC2(c3ccc(Cl)cc3)CCC2)CC1`, for which the GI50 is 17.6 µM and the TGI came to 39.6 µM.

For `O=c1oc2ccccc2cc1-c1csc(Nc2cc(Cl)cc(Cl)c2)n1`, the TGI was > 100 µM. On the same count and under the same terms, the value for `CCOC(=O)NC(Nc1ccc(F)c(F)c1)(C(=O)OCC)C(F)(F)F` (centres undefined) was > 100 µM; that for `Cc1ccc(S(=O)(=O)NC(=O)NC(C(=O)O)C(C)O)cc1` (centres undefined) was > 100 µM. Turning to `O=C1c2ccc3c4c(ccc(c24)C(=O)N1CCCNCc1ccccc1)C(=O)N(CCCNCc1ccccc1)C3=O`, the GI50 was 0.221 µM and the TGI came out at 0.774 µM. Regarding `c1ccc(CN2CCCN3CCN(CCCN(Cc4ccccc4)CC3)CC2)cc1`, the TGI was > 100 µM. Still for that read-out and setting: the result for `C=C1C(=O)OC2/C=C(\C)C(=O)CC3OC(C)(C)OC3(C)CC(OC(=O)/C(C)=C/C)C12` (centres undefined) reads > 100 µM. With `COc1ccc(/C=N/NC(=O)c2ccccc2Nc2ccccc2C(=O)N/N=C/c2ccc(OC)cc2)cc1`, the TGI was > 100 µM.

Take `CCCCCCCCCCCCOC1C(CNCC2OC3OC(C)(C)OC3C2NC(=O)Nc2ccc(C(F)(F)F)cc2)OC2OC(C)(C)OC21` (centres undefined): the GI50 is 7.44 µM and the TGI was found to be 15.6 µM. With `Cc1coc2c1CC1OC1(C)CCC1OC1(C)C2` (centres undefined), the TGI was > 100 µM. On the same count and under the same terms, the result for `O=C(c1ccccn1)c1nc(-c2ccc(Cl)c(Cl)c2)nc2ccc(Cl)cc12` reads > 100 µM. Still for that read-out and setting: the result for `CCN(CC)CCOc1ccc(N2Cc3ccccc3C2=O)cc1` reads > 10 µM; that for `N#CC(c1ccccc1)N(CCc1ccccc1)C(=O)c1ccccc1` (centres undefined), > 100 µM; that for `O=c1c2cc(Br)ccc2nc(-c2ccccc2)n1NCC1(O)OCC(O)C(O)C1O` (centres undefined), > 100 µM. On the same count and under the same terms, the value for `COc1cc(C2=C(C)[C@@H]3CN(CC=C3c3ccc(Cl)cc3)C2)c(S(=O)(=O)O)cc1OC` was > 100 µM. Take `CCNc1nc(N)c(C(=O)c2cccs2)s1`: the TGI was 94.3 µM. Turning to `COc1cccc2c1nc1cccc(OC)c1[n+]2[O-]`, the GI50 is 19.2 µM and the TGI was determined as 57.3 µM. Turning to `CCN=C=NCCCN(C)C`, the TGI is > 100 µM. Still for that read-out and setting: the value for `c1cc2[nH]snc2c2cncc12` was > 100 µM.
